Measured values reported in article PMC5571287 (Antimicrobial Agents and Chemotherapy, 2017).
Like-named read-outs stand apart in the source and are kept apart here.

Experiments:
RSVB HAN1135 [1] = experiment: microbe, parasite or virus in culture; type: cell-based; conditions: human respiratory syncytial virus, RSVB HAN1135, clinical
[2] = tested on: low-passage RSV B clinical isolates (x5 B); experiment: microbe, parasite or virus in culture; type: cell-based; conditions: human respiratory syncytial virus
[3] = tested on: low-passage RSV A clinical isolates (x5 A); experiment: microbe, parasite or virus in culture; type: cell-based; conditions: human respiratory syncytial virus
RSVB PEP121 [4] = experiment: microbe, parasite or virus in culture; type: cell-based; conditions: human respiratory syncytial virus, RSVB PEP121, clinical, 3 parameter curve fit
[5] = tested on: low-passage RSV B clinical isolates (x5 B); experiment: microbe, parasite or virus in culture; conditions: human respiratory syncytial virus
RSVB HAN1135 [6] = conditions: human respiratory syncytial virus
RSVA VAN1160 [7] = experiment: microbe, parasite or virus in culture; type: cell-based; conditions: human respiratory syncytial virus, RSVA VAN1160, clinical
RSVA Memphis 37c [8] = conditions: human respiratory syncytial virus
[9] = tested on: low-passage RSV A clinical isolates (x5 A); experiment: microbe, parasite or virus in culture; conditions: human respiratory syncytial virus
RSVA Memphis 37c [10] = experiment: microbe, parasite or virus in culture; type: cell-based; conditions: human respiratory syncytial virus, clinical
RSVB PEP121 [11] = conditions: human respiratory syncytial virus
RSVA VAN1160 [12] = conditions: human respiratory syncytial virus
[13] = read-out: CPE assay IC50, median
[14] = read-out: CPE assay IC90, median
[15] = read-out: CPE assay IC90, range
[16] = HEp-2, read-out: RSV titre in supernatant IC50 (0.3 Log PFUe reduction) (converted)
[17] = HEp-2, read-out: RSV titre in supernatant IC90 (1 Log PFUe reduction) (converted)

For `Cc1cnc(N2CC3(CCOCC3)C2)c(C(=O)Nc2ccc(C(=O)N3CCc4cc(C(=O)Nc5c(C)cccc5F)sc4-c4ccccc43)cc2)c1` [PC786, N-(2-fluoro-6-methylphenyl)-6-(4-(5-methyl-2-(7-oxa-2-azaspiro[3.5]nonan-2-yl)nicotinamido)benzoyl)-5,6-dihydro-4H-benzo[b]thieno[2,3-d]azepine-2-carboxamide], the IC50 (RSVB HAN1135 [1]; read-out: CPE IC50) was 25.8 nM, the IC90 (RSVB HAN1135 [1]; read-out: CPE IC90) was 27.4 nM and the IC50 [2, 13] was 17.5 nM. It also gave an IC90 [2, 14] of 360 nM, an IC90 [2, 15] of 27.4 to 821 nM and an IC50 [3, 13] of 0.42 nM. The IC50 ([3]; read-out: CPE assay IC50, range) was 0.09 to 0.71 nM, the IC90 [3, 14] was 1.77 nM and the IC90 [3, 15] was 0.57 to 3.77 nM. It also gave an IC50 (RSVB PEP121 [4]; read-out: CPE IC50) of 17.5 nM, an IC90 (RSVB PEP121 [4]; read-out: CPE IC90) of 196 nM and an IC50 ([5]; read-out: PCR IC50, median) of 12.1 nM. It also gave an IC50 ([5]; read-out: PCR IC50, range) of 8.1 to 17.7 nM, an IC90 ([5]; read-out: PCR IC90, median) of 21.7 nM and an IC90 ([5]; read-out: PCR IC90, range) of 12.3 to 34 nM. The IC50 (RSVB HAN1135 [6]; [16]) was 8.1 nM, the IC90 (RSVB HAN1135 [6]; [17]) was 34 nM and the IC50 (RSVA VAN1160 [7]; read-out: CPE IC50) was 0.71 nM. The IC90 (RSVA VAN1160 [7]; read-out: CPE IC90) was 1.93 nM, the IC50 (RSVA Memphis 37c [8]; [16]) was 0.53 nM and the IC90 (RSVA Memphis 37c [8]; [17]) was 1.16 nM. For the same molecule, the IC50 ([9]; read-out: PCR IC50, median) was 0.54 nM, the IC50 ([9]; read-out: PCR IC50, range) was 0.09 to 0.64 nM and the IC90 ([9]; read-out: PCR IC90, median) was 0.95 nM. For the same molecule, the IC90 ([9]; read-out: PCR IC90, range) was 0.5 to 1.16 nM, the IC50 (RSVA Memphis 37c [10]; read-out: CPE IC50) was 0.22 nM and the IC90 (RSVA Memphis 37c [10]; read-out: CPE IC90) was 3.77 nM. It also gave an IC50 (RSVB PEP121 [11]; [16]) of 17.7 nM, an IC90 (RSVB PEP121 [11]; [17]) of 27.4 nM and an IC50 (RSVA VAN1160 [12]; [16]) of 0.64 nM. The IC90 (RSVA VAN1160 [12]; [17]) was 0.91 nM.
